Assay results published in the supplement of paper PMC4166925.
± gives the standard deviation of the averaged measurements. In all, about 33,000 sequences were measured (“E-score (dimensionless, -0.5 to 0.5)”: median about -0.046, highest 2% from about 0.36 on). This is one part of the list.

test system: T1, SpTbr T-box DNA-binding domain (GST fusion); experiment: PBM E-score of 8-mer (E-score (dimensionless, -0.5 to 0.5)); Tbr is Tbrain of the sea star Patiria miniata (Pm) or the sea urchin Strongylocentrotus purpuratus (Sp); higher = stronger binding preference; most listed sequences are background and not binding sites; conditions: the construct has about 5 more residues each side
T1 sequence: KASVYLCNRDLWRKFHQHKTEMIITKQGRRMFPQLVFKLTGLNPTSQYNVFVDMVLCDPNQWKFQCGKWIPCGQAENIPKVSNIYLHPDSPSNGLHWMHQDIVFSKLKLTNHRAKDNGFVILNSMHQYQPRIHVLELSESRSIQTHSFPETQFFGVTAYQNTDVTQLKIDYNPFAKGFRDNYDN
Description: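 Universal protein-binding microarray (Agilent AMADID 016060, 60-bp probes with a 35-bp variable region) incubated with 200 nM GST-fused Strongylocentrotus purpuratus Tbr T-box DNA-binding domain (residues 362-554) in PBS pH 7.5. Scored for every ungapped 8-mer (given with its reverse complement) as E-score (range -0.5 to 0.5; >0.45 counts as bound) and Z-score of median probe intensity. Two replicate arrays (datasets 1 and 2).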
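Further: protein at 200 nM in PBS on universal double-stranded arrays.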

Sequence	PBM E-score of 8-mer
CGAAGAAC	-0.169 ± 0.03
AGTCTCTA	-0.171 ± 0.035
AATTAGTA	-0.0654 ± 0.035
GTGCGAGA	0.42 ± 0.0079
CGGTCGAG	-0.111 ± 0.033
CTCTCTCC	-0.00167 ± 0.082
ATTGCACG	0.086 ± 0.0037
CTCCCTGC	-0.116 ± 0.0035
ACACCTCG	0.4804 ± 0.0036
GAGGACGA	-0.108 ± 0.0027
CTTGCGGA	0.055 ± 0.09
ATGTGTGC	0.299 ± 0.0091
CATAACGA	-0.166 ± 0.013
TAGTGCAA	0.247 ± 0.024
CGCAATAA	-0.0582 ± 0.043
ATCTAAGA	-0.3493 ± 0.00096
ACGTAACA	0.0479 ± 0.058
GGACCGAA	-0.151 ± 0.097
AAGGGAAC	-0.163 ± 0.012
ACGGCCGT	0.139 ± 0.017
ATTACAGG	-0.0668 ± 0.008
ATGACAGA	-0.0153 ± 0.019
ACATATAA	-0.159 ± 0.013
GTTAGCCA	0.0563 ± 0.019
AACTACGT	-0.0858 ± 0.012

Sequence	PBM E-score of 8-mer
GCCGGCAC	0.19 ± 0.042
GGATGCAC	-0.141 ± 0.064
AGTTGGTC	-0.0262 ± 0.06
ATTCGAAA	0.01 ± 0.018
GGGGCCAC	0.0079 ± 0.0018
ACGCTCGG	-0.0977 ± 0.019
AACGCCCT	0.235 ± 0.0089
CGGAGGAG	-0.0431 ± 0.028
CAACAGCG	0.105 ± 0.035
CAAATCGC	0.265 ± 0.025
GAGGGACC	-0.244 ± 0.061
CTTAAGTC	-0.0735 ± 0.11
CAAGGAGA	-0.0986 ± 0.082
AAAACGAT	-0.0447 ± 0.022
CCGAACCG	-0.221 ± 0.0042
AGCGACAT	0.151 ± 0.018
ATTATACA	-0.248 ± 0.012
GGCGGTGA	0.0218 ± 0.022
ACCTTTAC	0.113 ± 0.043
CGCGCCCA	0.242 ± 0.045
TAACTTAA	-0.0659 ± 0.045
TATCAACA	0.0884 ± 0.0019
ACGGCTAA	-0.192 ± 0.021
GCAGTCGA	-0.114 ± 0.0086
AACAGTGC	0.0556 ± 0.0074

Sequence	PBM E-score of 8-mer
GAGACAAA	-0.0684 ± 0.007
CTTAATAA	-0.355 ± 0.044
CACGAGTG	0.229 ± 0.0061
GAAATAAC	0.18 ± 0.049
ACAGAAAG	-0.119 ± 0.026
AGAGTGTC	0.359 ± 0.0099
ATATGCAT	-0.167 ± 0.13
CAGGTCCC	-0.11 ± 0.016
AGCACATG	0.0968 ± 0.0055
GTATAGTA	-0.103 ± 0.013
CTCAAAGA	-0.222 ± 0.093
AATCTCGT	-0.0158 ± 0.029
CCTCACAA	0.233 ± 0.0063
TAAAAATA	0.0384 ± 0.033
ATGAAGTA	-0.246 ± 0.031
AGTTCAGC	-0.0991 ± 0.041
CGATTGGA	-0.213 ± 0.091
GTCGTCAA	0.271 ± 0.01
GAATATAC	-0.146 ± 0.013
AACAACAG	-0.00624 ± 0.0057
CAAGGACA	-0.0588 ± 0.033
ACTATAAA	-0.112 ± 0.081
GGGCACTA	-0.145 ± 0.036
ATATCTTG	-0.076 ± 0.03
AATCGACG	0.0974 ± 0.066

Sequence	PBM E-score of 8-mer
CTGGTAGC	0.0561 ± 0.069
CATAGTCG	0.0887 ± 0.043
CGTATTGA	-0.0911 ± 0.063
AAGAATGC	-0.174 ± 0.03
ACCCTCCG	-0.0714 ± 0.011
ACCGGACG	-0.132 ± 0.0078
AGCGCTTG	0.0663 ± 0.013
GTGGTAAC	0.207 ± 0.0039
CGTCAAAA	0.277 ± 0.013
ATATGGAA	-0.196 ± 0.053
ACGACTAC	0.0174 ± 0.024
GCTGTGAC	0.161 ± 0.042
TCTGTTCA	0.0551 ± 0.0088
CTATAGGA	-0.1 ± 0.061
ATCCTCCA	0.0475 ± 0.013
CAACAGTG	0.15 ± 0.0071
ACACCCCA	0.376 ± 0.013
CGATTGAG	-0.221 ± 0.044
ACTATGAG	-0.24 ± 0.033
GAATTATA	-0.111 ± 0.073
CTACTACA	-0.245 ± 0.014
AATGTCGA	0.049 ± 0.071
GGAAGAAC	-0.143 ± 0.018
CGACGACA	0.171 ± 0.11
AGGAGTCA	0.0241 ± 0.025

Sequence	PBM E-score of 8-mer
CGTTCGAG	-0.0941 ± 0.013
ACCACGGC	-0.0173 ± 0.051
CAATTGTC	0.223 ± 0.055
ACACTACG	0.3 ± 0.0087
GACTTATA	0.0117 ± 0.031
GCATTGTA	-0.043 ± 0.039
ATCTCGGA	-0.276 ± 0.03
AGTGTCGA	0.405 ± 0.0049
CGGGCTTC	-0.125 ± 0.019
ACAGGAAC	-0.071 ± 0.018
TTCATAAA	-0.055 ± 0.0017
GGCGACGA	0.232 ± 0.0069
AAATGCGA	-0.00257 ± 0.063
ACGTGGCA	0.251 ± 0.029
CCGCCTCG	-0.0478 ± 0.058
ACCCACGG	-0.121 ± 0.0078
AGGTTGTA	0.107 ± 0.053
CCTCCAAC	-0.056 ± 0.066
ACGATATA	-0.13 ± 0.0043
CACAGAAG	0.116 ± 0.014
TCATCCGA	-0.0874 ± 0.12
TAGCAGCA	0.0493 ± 0.088
CCGACGCG	0.148 ± 0.077
ACATGCTC	-0.0375 ± 0.058
TAATGGGA	-0.0365 ± 0.045

Sequence	PBM E-score of 8-mer
ATATAAGC	-0.193 ± 0.077
CCGTGCCA	0.147 ± 0.025
CACGAAAC	0.176 ± 0.055
GGCAAAAC	0.0487 ± 0.0086
GCAATACC	-0.0236 ± 0.082
GCGACCTA	0.0146 ± 0.002
AGGACAAC	-0.224 ± 0.031
CCTAAGCG	-0.0819 ± 0.022
GCTGGTGA	0.103 ± 0.087
ATAAAAGG	-0.00138 ± 0.13
GAAATTTA	-0.17 ± 0.12
GGAAAGAC	-0.0417 ± 0.04
AGTCCAAG	-0.396 ± 0.015
TCTATTAA	-0.0316 ± 0.07
CCGTCATC	0.028 ± 0.045
ATGATTCA	-0.139 ± 0.042
AGATTAGA	-0.263 ± 0.014
GAGCTGCA	0.0629 ± 0.08
AAGTTCGT	-0.0544 ± 0.0035
ATGACCTA	-0.132 ± 0.046
CGCGCCCC	0.186 ± 0.033
ACTAATCT	-0.0913 ± 0.065
AGGCTGGA	-0.0423 ± 0.056
CATCCGCC	-0.0962 ± 0.054
ACACGATC	0.21 ± 0.055

Sequence	PBM E-score of 8-mer
CTTTATAC	-0.145 ± 0.054
ACAAGTAA	0.0434 ± 0.023
CGCCAGAC	0.0647 ± 0.033
CAGACTCC	-0.201 ± 0.021
GAATACCC	-0.0688 ± 0.056
GCCGGAGA	-0.0821 ± 0.065
CTGCGCTA	-0.02 ± 0.019
CCATGACG	-0.213 ± 0.026
AGACGAGC	-0.248 ± 0.016
GCCTCCAA	-0.136 ± 0.0096
TACGAGAA	-0.0475 ± 0.029
CCGCATCG	-0.0523 ± 0.1
TCGCGAAA	0.403 ± 0.026
TGAAATAA	0.0629 ± 0.071
CTAAAATC	-0.0092 ± 0.037
GCTTTTAA	-0.1 ± 0.031
AACAGGAG	-0.00974 ± 0.02
CGCGTGAC	0.355 ± 0.02
GTGGTACA	-0.0977 ± 0.016
ACCGCTTG	0.0927 ± 0.016
CAACGGGA	-0.118 ± 0.12
CGACATCC	0.0466 ± 0.024
